Laboratory results as given in the supplement of paper PMC11417369.
Some of the results follow.

Each sequence was assayed on PfAP2-HC AP2 domain (GST-tagged) (assay: gcPBM binding intensity (ln(normalized median fluorescence intensity)); higher = stronger DNA binding).
Outline: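 Binding intensity is the highest Masliner-normalised natural-log median intensity over replicate spots in either probe orientation. To obtain it, GST-tagged P. falciparum DNA-binding domains made in E. coli were incubated for 1 h on an Agilent 4 × 180k array of primer-extended double-stranded 36-bp intergenic genomic probes plus negative controls. Detection used Alexa488 anti-GST antibody with scanning at 488 nm.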

Sequence | gcPBM binding intensity (ln)
GAAATGTATATTTTTACATGCAAATAAAATATATAA [TGCATGCA_site439] | 9.47
ACACAATATATATATTGTACATACACATATTTACTA [XGTACX_site1872] | 9.78
TTTTTCTTGAATCGAAGTACTTAGGAGGGGATATTT [XGTACX_site2862] | 9.83
GAATATAAACATATTACACACATCTATAGGTACATT [CACACA_site6983] | 10.1
ATAGAATCTGGTAGCTGTACGAGTCGTAGAGTGCAG [XGTACX_site2026] | 9.72
AATATATACATATATGTACACACATTACAGATGTAC [CACACA_site8227] | 10
AGGACTAATATTTGAACACACATATAATATATACAT [CACACA_site3998] | 9.88
AGTATATAAAATACTGTATCGATGGGGGAGGGCGCA [CACACA_negctrl_site1612] | 9.91
ACAAATAAATAAAAAACACACACAAATAAATAAATA [CACACA_site8708] | 10.6
TAATAATAAAATATTTGTACATATAAAATATGGCTG [XGTACX_site7904] | 9.61
AATATAATGCAATATACACACATATATTTCTCTTTT [CACACA_site7276] | 9.94
TATAAAAAATAATTATCATGAAATATATGATCATCA [TGCATGCA_negctrl_site137] | 9.4
ATTATTATTTATATGATACACACGTACATATACGCA [CACACA_site3823] | 9.79
TTAAAAAAAATATAATGTACTTGTAGAATTATATTT [XGTACX_site6220] | 9.42
TATATTTTTTATAAATGTACATGGATAGGCATAAAC [XGTACX_site8401] | 9.75
TCAAAAATGAGTTACACACACACATATATATATATA [CACACA_site2229] | 10.6
ATATGAATAAATAAAAGTACATACATAATGTATTAT [XGTACX_site5969] | 9.83
ATATATTTATGTATCACACACAAAAAAAAAAAATAA [CACACA_site255] | 10.4
AATTTTTTTCTCCAAGTGCATTAGAACATTAACGTA [GTGCAC_site9413] | 9.3
AATTATTGTGAAGGGAAAACAAAAAAGTTTATAATT [CACACA_negctrl_site1337] | 9.64
AACTAATAAAAAAAAAGTACACAATATGTAAATAAC [XGTACX_site5263] | 9.97
AAGCGAATATATATCACACACAAAAAAATCAGACTA [CACACA_site2108] | 9.94
AACAAATATATTAACACACAAACATATAAACCAATG [CACACA_site3970] | 10.2

Sequence | gcPBM binding intensity (ln)
TATATATTATATATATGTACATACTTTTTACGTTCA [XGTACX_site2493] | 9.85
AAATTAATTAAATATACACACATATATAGATATATA [CACACA_site6321] | 9.74
ACCACATTTTTTTTTGCATGTTGTTTAAAAAAAGGC [TGCATGCA_site137] | 9.43
AGTATAAGCATTATTGTGCACATAATTATAATTTTT | 9.78
AGTTTAAATTAAATTACACACTACGAATAATATATT [CACACA_site7811] | 9.6
GTTGCAATTAACACTAGTACATATAAGTAGTTTATT [XGTACX_site2063] | 9.66
ATTGTTCTCCAAAAGTGTACGTATTATTTTTCTGGA [XGTACX_site1404] | 9.6
TATATATTAATAAATAGTACCCGTGGAATTTATATT [XGTACX_site5855] | 9.65
AATAATGAAACAGGAAAAAAATATTGTTAAAATGTA [XGTACX_negctrl_site400] | 9.72
TATTAATCTTTTTTTAAACAAAAAATTAAGCAAATT [CACACA_negctrl_site884] | 9.15
TATATATAATATATATGTACATAATATATTTTATAT [XGTACX_site2909] | 9.52
TAAAACACTCATGGCACACATAAAACATTTTTATGA [CACACA_site3574] | 9.77
TCGTGTTTTAAAAAAATGAAGAAAAGTAAAAAAAAA [XGTACX_negctrl_site23] | 9.48
ATGATAGTAATTAATAGTACTTTTTTTGATACAAAA [XGTACX_site4288] | 9.55
TAATATGAATATATATGTACATACAATTTGTTATAT [XGTACX_site5815] | 9.78
ATTAAATGTATGACTTGTACATAAAATAAAAAAAAA [XGTACX_site6555] | 9.73
TAAAGATATAAATGCACACGTATTAAAAAAAAAATA [CACACA_site952] | 9.94
TTATCATTACATGAGTGTACATTATTATATTTTTTT [XGTACX_site7845] | 9.87
ATATATTTTTTTTTTTGTACGTATATTTATATAATT [XGTACX_site8719] | 9.8
GAAAGAAAGAAAGAAAGTACATATAAAAATATACAT [XGTACX_site7299] | 9.51
CAAGAATTAAAATAAAGTACAAAAGTAACAACTTTT [XGTACX_site1474] | 9.69
AAAAAAAAGGAAAAGGGTACAAAACCATACTTACAT [XGTACX_site4783] | 9.81
ATTAGTGACATTATTACACACAAAAGAAAACAGAAA [CACACA_site3984] | 9.99

Sequence | gcPBM binding intensity (ln)
TGAATCTATATACAGGTGCGTAAAAAATAACTTATA | 9.47
TGTATGATTATGTTGTGTACGTAAAATATGAAAAAT [XGTACX_site1720] | 9.74
GCACACATATAATTAAACATATATTTGTATTATTTT [GTGCAC_negctrl_site327] | 9.9
GTATCATAAAAGTATACACACATACATACATATGTA [CACACA_site5456] | 9.95
ATCTCTACAAAGTGCACACACGTAAAAACATATATA [CACACA_site6046] | 9.92
ATTTTCCTTTAATTATGTACTTATGTAATAATAATG [XGTACX_site2612] | 9.63
TTTTAATGTATATTTTGTACGTATTATTAATATTCG [XGTACX_site8453] | 9.64
TATCCTAATGCTACCACACACACAAAAACAAATAAT [CACACA_site2609] | 10.7
AATATTTATGGGTGCACACAAACATACATATATATA [CACACA_site3395] | 10.2
AAAAAAAAGAATAGAGCATGCAAAATATATGAAATA [TGCATGCA_site933] | 10.2
ATGTTGAAAGGAAAAAATAATAAAATCGATATATTA [CACACA_negctrl_site549] | 9.6
CCTTACTTCTTATAAAGTACCCAATGATATACATTA [XGTACX_site1554] | 9.54
AGGAAATTTGTTATTGCACACAAATTTTTCTTTTTT [CACACA_site8732] | 9.78
AATGTCAGTATGCGAGGTACACGTATAAAAATTACA [XGTACX_site4109] | 9.65
TATTATAATAAACCTATACACACATAAATAAATAAA [GTGCAC_negctrl_site627] | 9.86
TACATAAATTAAAACACACACACACTAGAAAAAAAA [CACACA_site5278] | 10.6
TTTTACTAAATATATACACACATTATACAGATATAT [CACACA_site5765] | 9.86
TTTTAAATTGGAGTGGGCAGATTGATATTATTCTTC [GTGCAC_negctrl_site191] | 9.8
AAAAATAAAATATATACACACATATATATATATATA [CACACA_site2943] | 9.61
ACATATATATATATGTGTACATATTTATACAACAAT [XGTACX_site6660] | 10.1
TTTTTAATTTTGTGGGTGCTTTCGTGTTATTATATA | 10.1
AAGTATAAATTAAAATGTACTTATAAAAAAAAAGAA [XGTACX_site7028] | 9.85
TGTCACATAATTTATGCACACAATGATTATGCTTAA [CACACA_site2358] | 9.71

Sequence | gcPBM binding intensity (ln)
ACATATATTGTACATACACACCTATATAAATATCCT [CACACA_site7503] | 9.82
TATGTATGTATGTATGCATGTGTAACACCTAAATAT [TGCATGCA_site361] | 9.8
CCATATTTCATTAATGAACACACAAAGAGGTATATA [CACACA_site8431] | 9.77
TATATATATATACCAACACACATACATATATATATA [CACACA_site8530] | 9.99
TAAAAAATAAAAATTGCACACTAAAAAATTACGCAC [CACACA_site9129] | 9.73
TTCAACATATTAAAAAGTACAGAATATAACATTATA [XGTACX_site1361] | 9.56
GAATAAAAAATTGGCACACATAAATATATGGATATA [CACACA_site3047] | 9.83
TATACGTGAATGACAGTGCATTTCAAAAGTATAAAA [GTGCAC_site9887] | 9.79
AATAAATTTAGACACACACACACATATAAATAAATA [CACACA_site6531] | 11.1
TATATATCCTCTGAATGTACTTGTTTAATAATGTAG [XGTACX_site4332] | 9.45
TGTGTAATATTCTGTTGTACATAACTCATAAATAAA [XGTACX_site5308] | 9.37
ATAATATAATATATATGTACACATCCTTTTTGTGTA [XGTACX_site2879] | 9.66
TAAAAGTAAAAAGGTAGTACCTAAATAATATATATA [XGTACX_site8399] | 9.86
ATAAGATAGGCATATACACACATTTATTTACAGATA [CACACA_site5754] | 9.8
AGTAGGCATATTGGTTGTACAAAAAAATTATGCACC [XGTACX_site8925] | 9.8
TTTTTTTTTTCTCTCGCACACATTTTTTAAAATGAG [CACACA_site2607] | 9.93
ATATTTATATAGATGTGTACATAAATATAATAACAT [XGTACX_site1681] | 9.81
GACTCTTAAAAAATTTGTACCCACATAAATAATATA [XGTACX_site4313] | 9.48
TTTGGGTATACACATACATGCATGTCCTTATATATA [TGCATGCA_site84] | 10
ATTATTTATTTATTTTTTTTTTTTTTCTCTTTTCCT [GTGCAC_negctrl_site656] | 9.47
